Test results from PubChem BioAssay AID938 (National Center for Advancing Translational Sciences (NCATS), 2007).
Among all 73,000 compounds or so, about 1,800 (2.5%) were called active. This list was built around the results that the source calls inconclusive (neither active nor inactive); the mix of calls is not that of the screen. The call rests on the fitted dose curve; in most records, active means well fitted activation curve with a large enough effect; inconclusive means small, poorly fitted or top-dose-only effect; inactive means no such curve, though single readings can be large or run the other way. No potency is given beside an inconclusive call; the fits are too rough.
Potency means the concentration at half of the fitted maximal effect; tags describe the fitted curve by direction and shape.

Assay: qHTS Assay for Agonists of the Thyroid Stimulating Hormone Receptor: Activators of Intracellular cAMP Concentrations in Parental HEK 293; further: nearly all actives have a fitted effect of over 55% in size; on activation: % of control where 0% means no effect
Conditions: parental HEK293 CNG cAMP sensor, membrane potential fluorescence; activation: at 57.1 µM (top of the series) unless noted
Summary of the method: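 Parental HEK 293 cells stably expressing a cAMP-gated CNG channel were loaded with membrane potential dye containing 100 uM RO 20-1724 for 60 min. Compound added for 30 min; depolarization read as fluorescence intensity at 590 nm.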
In the case of Cc1cc(C)n2nc3ccccc3c2n1, the Potency is reported as inconclusive [activator, single point]. For O=C(Cc1nc2ccccc2[nH]1)NCc1ccco1, the Potency was “inactive”. For CC(=O)C1=C(O)C(=O)N(CCCCCC(=O)O)C1c1ccc(N(C)C)cc1 (configuration not stated), the Potency was inconclusive [activator, single point]. In the case of CC(=O)c1sc2nc(-c3cccs3)cc(C(F)(F)F)c2c1N, the Potency is reported as “inactive”. For COc1ccc(N2CCN(C(c3cc(OC)ccc3OC)c3nnnn3Cc3ccco3)CC2)cc1 (configuration not stated), the Potency was inconclusive [activator, full curve, poor fit]. For CCCCN1C(=O)/C(=C2\SC(N3CCCCC3)=NC2=O)c2ccccc21, the Potency was “inactive”. In the case of c1ccc(-c2nnc(N3CCOCC3)nc2-c2ccccc2)cc1, the Potency is reported as inconclusive [activator, single point]. With c1cn2cc(CSC3CCCCC3)nc2s1 the Potency was inconclusive [activator, partial curve]. For O=C(Nc1ccccc1)N(C1=NCCC1)c1ccc(OC(F)F)cc1, the Potency was inconclusive [activator, single point]. In the case of COc1ccc(Oc2ncc3ncc(=O)n(Cc4cccs4)c3n2)cc1, the Potency is reported as inconclusive [activator, partial curve]. With CC1CCN(C(c2ccccc2)c2nnnn2C(C)(C)C)CC1 (configuration not stated) the Potency was active: 20 µM. With COc1ccc(C2=NOC3(CC(=O)N(c4ccc(C)cc4)C3=O)C2)c(OC)c1 (configuration not stated) the Potency was “inactive”. For NC(=O)NC(N)=O, the activation was inconclusive: 34.8% [activator]. In the case of COCCSc1ccccc1C(=O)Nc1nnc(COC)s1, the Potency is reported as “inactive”. For O=C(O)c1ccc(Cl)c(Cl)c1, the Potency was inconclusive [activator, partial curve]. In the case of CCCCN(C(=O)c1ccc(Cl)cc1)C1CC2CCC(C1)N2C (configuration not stated), the Potency is reported as “inactive”. For CCOC(=O)c1cc2sc(C)cc2n1CC(=O)N1CCc2ccccc21, the Potency was active: 7.94 µM. In the case of C=CCSc1nc2c(cc1C#N)CCC2, the Potency is reported as inconclusive [activator, partial curve]. With O=C(NCc1ccc2c(c1)OCO2)c1ccc(-c2ccc(Cl)cc2)o1 the Potency was inconclusive [activator, partial curve]. In the case of Cc1nc2c(ccc3nc(NC(=O)c4ccc5c(c4)OCCO5)sc32)s1, the Potency is reported as inconclusive [activator, single point]. For CC(C)C(=O)Nc1ccc(C(=O)N2CCN(C(=O)c3ccco3)CC2)cc1, the Potency was inconclusive [activator, single point]. In the case of O=C(C1CCN(S(=O)(=O)c2cccc3cccnc23)CC1)N1CCN(c2ccccn2)CC1, the Potency is reported as “inactive”.
